The other results are listed elsewhere or left out. These are noisy estimates, calculated here from bound and input reads.

The target of this experiment is T1, Pho4 (S. cerevisiae) (UniProt P07270).
T1 sequence: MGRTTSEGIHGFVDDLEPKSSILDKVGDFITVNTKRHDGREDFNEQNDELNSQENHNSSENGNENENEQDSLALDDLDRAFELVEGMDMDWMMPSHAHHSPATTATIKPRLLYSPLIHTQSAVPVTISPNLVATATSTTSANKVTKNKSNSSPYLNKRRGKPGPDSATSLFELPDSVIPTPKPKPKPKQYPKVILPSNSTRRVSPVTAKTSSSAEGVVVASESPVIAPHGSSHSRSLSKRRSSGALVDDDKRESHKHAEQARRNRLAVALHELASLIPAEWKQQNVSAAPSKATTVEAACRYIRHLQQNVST
The experiment in a line: relative binding free energy (BET-seq); higher = weaker binding. Conditions: reference: library average.
For the sequence GGATACACGTGTGGCG, the “relative binding free energy” value came out at 0.08 kcal/mol.

Consider ATATGCACGTGGAGGC, for which the “relative binding free energy” value is -0.03 kcal/mol.

For GAGGGCACGTGGGGAC, the “relative binding free energy” value was -0.26 kcal/mol.

In the case of GGTATCACGTGATGGA, the “relative binding free energy” value worked out at 0.26 kcal/mol.

With ATTCACACGTGGAGGT, the “relative binding free energy” value was 0.08 kcal/mol.

Take CCTGGCACGTGTTTGA: the “relative binding free energy” value is -0.01 kcal/mol.

Regarding TGGGGCACGTGGGGTA, the “relative binding free energy” value was -0.25 kcal/mol.

GTCGTCACGTGGGTTC: the “relative binding free energy” value amounted to 0.12 kcal/mol.

Turning to CGTTTCACGTGGAAGT, the “relative binding free energy” value is 0.33 kcal/mol.

Regarding GGTTGCACGTGTATAC, the “relative binding free energy” value was 0 kcal/mol.

CAGTTCACGTGAGTTT: the “relative binding free energy” value was 0.43 kcal/mol.

With CGAAGCACGTGTTGGT, the “relative binding free energy” value is -0.14 kcal/mol.

As to TAATTCACGTGAGGTG, the “relative binding free energy” value turned out to be 0.33 kcal/mol.

With ATTTTCACGTGCTGGT, the “relative binding free energy” value was determined as 0.03 kcal/mol.

In the case of CGTTTCACGTGATGGT, the “relative binding free energy” value turned out to be 0.32 kcal/mol.

Take CTAGACACGTGTTGTT: the “relative binding free energy” value was -0.01 kcal/mol.

TACAGCACGTGGGTTT: the “relative binding free energy” value was -0.21 kcal/mol.

As to TTGGTCACGTGCGAGA, the “relative binding free energy” value is 0.09 kcal/mol.

Regarding GTTAGCACGTGCTGTA, the “relative binding free energy” value worked out at 0.02 kcal/mol.

Take GCTTTCACGTGTGTTT: the “relative binding free energy” value worked out at 0.39 kcal/mol.

For the sequence GGGTGCACGTGGCTAT, the “relative binding free energy” value was -0.07 kcal/mol.

For the sequence TGTACCACGTGTTGTA, the “relative binding free energy” value was -0.01 kcal/mol.

For AGGTGCACGTGAGAGA, the “relative binding free energy” value came out at 0.24 kcal/mol.

Regarding ATGGGCACGTGTGATG, the “relative binding free energy” value was -0.04 kcal/mol.

Consider AATGGCACGTGATAGA, for which the “relative binding free energy” value was 0.04 kcal/mol.

Turning to ATGTACACGTGTCGTA, the “relative binding free energy” value amounted to 0.12 kcal/mol.

As for GGGTACACGTGTTCGT, the “relative binding free energy” value is 0.18 kcal/mol.

TAAGTCACGTGGTTGC: the “relative binding free energy” value came out at 0.18 kcal/mol.

Regarding AGAGTCACGTGTGAGC, the “relative binding free energy” value came out at 0.29 kcal/mol.

Turning to GCATGCACGTGCGTGG, the “relative binding free energy” value is -0.13 kcal/mol.

Take TTGGTCACGTGATGAA: the “relative binding free energy” value worked out at 0.19 kcal/mol.

Consider TTGTGCACGTGTCACG, for which the “relative binding free energy” value was 0.03 kcal/mol.

As for ACGGGCACGTGCGGAG, the “relative binding free energy” value is -0.11 kcal/mol.

Consider TCGTCCACGTGGTGTA, for which the “relative binding free energy” value was -0.08 kcal/mol.

Consider CATGGCACGTGTGTGC, for which the “relative binding free energy” value was -0.01 kcal/mol.

Take ATTAGCACGTGGATAT: the “relative binding free energy” value was -0.01 kcal/mol.

Take GTTGACACGTGTGAAT: the “relative binding free energy” value came out at 0.13 kcal/mol.

Consider TGAGTCACGTGAAGTG, for which the “relative binding free energy” value amounted to 0.39 kcal/mol.

AGTAACACGTGTTGGC: the “relative binding free energy” value is -0.03 kcal/mol.

Regarding AGTTTCACGTGGCATT, the “relative binding free energy” value is 0.22 kcal/mol.

Regarding TGCTACACGTGGGTGG, the “relative binding free energy” value is -0.16 kcal/mol.

With ATGATCACGTGCATGG, the “relative binding free energy” value came to 0.09 kcal/mol.

Take TGGAGCACGTGCGTTG: the “relative binding free energy” value is -0.27 kcal/mol.

For ATGTCCACGTGATGTT, the “relative binding free energy” value worked out at 0.17 kcal/mol.

On to TGTGACACGTGGTCTA, for which the “relative binding free energy” value is -0.2 kcal/mol.

Turning to TGAGGCACGTGAATTG, the “relative binding free energy” value was -0.01 kcal/mol.

For the sequence TGCATCACGTGCTTGG, the “relative binding free energy” value was 0.15 kcal/mol.

With GATGGCACGTGTCTTG, the “relative binding free energy” value was 0.1 kcal/mol.

Turning to TTCTTCACGTGGTTTA, the “relative binding free energy” value is 0.28 kcal/mol.

As to TCTGTCACGTGTAAAG, the “relative binding free energy” value was determined as 0.2 kcal/mol.

With ATTAGCACGTGGGCTG, the “relative binding free energy” value was -0.16 kcal/mol.

Regarding TATAACACGTGAGGGA, the “relative binding free energy” value was 0.17 kcal/mol.

For GGGAGCACGTGGAGTA, the “relative binding free energy” value was -0.15 kcal/mol.

As to TTGGGCACGTGAACGA, the “relative binding free energy” value came to 0.32 kcal/mol.

On to GGAGTCACGTGTGGCT, for which the “relative binding free energy” value was 0.11 kcal/mol.

For TTTTGCACGTGTTGTT, the “relative binding free energy” value amounted to 0.05 kcal/mol.

For TCTGTCACGTGTTTGT, the “relative binding free energy” value was -0.06 kcal/mol.

TTGTGCACGTGCTGGA: the “relative binding free energy” value is -0.09 kcal/mol.

Take GTAATCACGTGCGAGG: the “relative binding free energy” value worked out at 0.17 kcal/mol.

As to GTTAACACGTGGCTTT, the “relative binding free energy” value is 0.12 kcal/mol.

Take AATTACACGTGGGGAG: the “relative binding free energy” value was -0.05 kcal/mol.

For CTAGGCACGTGCGGGT, the “relative binding free energy” value was -0.26 kcal/mol.

Turning to CGAGGCACGTGTTTAG, the “relative binding free energy” value is -0.09 kcal/mol.

As for GGAGGCACGTGGTTAT, the “relative binding free energy” value was -0.08 kcal/mol.

Regarding ATGGACACGTGAGTAT, the “relative binding free energy” value worked out at 0.17 kcal/mol.

TTACGCACGTGGGATA: the “relative binding free energy” value was -0.15 kcal/mol.

GAAGTCACGTGTAGTG: the “relative binding free energy” value was found to be 0.09 kcal/mol.

Take GAGTACACGTGGTAGA: the “relative binding free energy” value worked out at 0.12 kcal/mol.

On to TTTTACACGTGGGTCT, for which the “relative binding free energy” value came out at 0.01 kcal/mol.

Turning to AGAGTCACGTGTATAT, the “relative binding free energy” value was determined as 0.16 kcal/mol.

CTTTTCACGTGTGGCT: the “relative binding free energy” value worked out at 0.26 kcal/mol.

As for CTGTGCACGTGATTAT, the “relative binding free energy” value was -0.03 kcal/mol.

On to GTGTACACGTGTGTAA, for which the “relative binding free energy” value turned out to be 0.04 kcal/mol.

Regarding GGGCTCACGTGATGGT, the “relative binding free energy” value was 0.38 kcal/mol.

For GGGATCACGTGTTGGA, the “relative binding free energy” value is 0.17 kcal/mol.

Regarding TAGTGCACGTGGGAAA, the “relative binding free energy” value is -0.06 kcal/mol.

In the case of TTTGTCACGTGCATGC, the “relative binding free energy” value is -0.05 kcal/mol.

For GTGTTCACGTGGCGGC, the “relative binding free energy” value amounted to 0.18 kcal/mol.

Take GTCATCACGTGTCGGT: the “relative binding free energy” value came to 0.16 kcal/mol.

For the sequence TTAAGCACGTGGTAGC, the “relative binding free energy” value was -0.13 kcal/mol.

As to ACGGACACGTGGTGGG, the “relative binding free energy” value is -0.03 kcal/mol.

On to GTTTGCACGTGCGCAG, for which the “relative binding free energy” value turned out to be 0.03 kcal/mol.

CTAGTCACGTGATTGT: the “relative binding free energy” value was 0.14 kcal/mol.

As to TGTAGCACGTGAGTTC, the “relative binding free energy” value was determined as 0.12 kcal/mol.

As to TTTATCACGTGATGGG, the “relative binding free energy” value is 0.33 kcal/mol.

In the case of TTTGTCACGTGTTTTG, the “relative binding free energy” value turned out to be 0.1 kcal/mol.

Consider AGTCGCACGTGATGTT, for which the “relative binding free energy” value was determined as 0.21 kcal/mol.

With TGTAACACGTGATTTT, the “relative binding free energy” value worked out at 0.23 kcal/mol.

Consider ACTGTCACGTGGTTGG, for which the “relative binding free energy” value is 0 kcal/mol.

Regarding TTATTCACGTGTGAGT, the “relative binding free energy” value came out at 0.36 kcal/mol.

Take TTAAGCACGTGGGTGT: the “relative binding free energy” value was -0.3 kcal/mol.

ATGGACACGTGGGGTG: the “relative binding free energy” value is -0.05 kcal/mol.

Turning to CATTTCACGTGCGTAT, the “relative binding free energy” value came out at 0.33 kcal/mol.

For the sequence CGAAACACGTGTTGGT, the “relative binding free energy” value is 0 kcal/mol.

Consider TGTCGCACGTGAGGAG, for which the “relative binding free energy” value was 0.17 kcal/mol.

For the sequence ACGGGCACGTGTGTTT, the “relative binding free energy” value was -0.03 kcal/mol.

As for TCGGGCACGTGATTTT, the “relative binding free energy” value was -0.01 kcal/mol.

Turning to GCGAGCACGTGGTTTA, the “relative binding free energy” value is -0.06 kcal/mol.

In the case of GTATTCACGTGGTCTT, the “relative binding free energy” value came out at 0.14 kcal/mol.

As for CTTTACACGTGTGGTA, the “relative binding free energy” value stood at 0.02 kcal/mol.

On to TGCCGCACGTGTTGTG, for which the “relative binding free energy” value was found to be 0.01 kcal/mol.

As for TTGATCACGTGGCGTT, the “relative binding free energy” value was 0.04 kcal/mol.

In the case of TACTACACGTGTAGTT, the “relative binding free energy” value amounted to 0.09 kcal/mol.

For the sequence TGTGTCACGTGGCGTT, the “relative binding free energy” value turned out to be 0.05 kcal/mol.

For the sequence GTGGTCACGTGCGCGG, the “relative binding free energy” value turned out to be 0.02 kcal/mol.

For TCTTTCACGTGGTGCT, the “relative binding free energy” value was found to be 0.19 kcal/mol.

Consider GGGTACACGTGTTAGT, for which the “relative binding free energy” value came out at 0.1 kcal/mol.

With TAGGACACGTGGCTAG, the “relative binding free energy” value was found to be 0.06 kcal/mol.

Regarding CTTTTCACGTGGGGAG, the “relative binding free energy” value stood at 0.06 kcal/mol.

As to TTTAGCACGTGTGTTT, the “relative binding free energy” value was found to be 0.06 kcal/mol.

As to GGGAACACGTGGGAAG, the “relative binding free energy” value stood at 0.08 kcal/mol.

As for GAAAGCACGTGAGTTT, the “relative binding free energy” value is 0.32 kcal/mol.

Consider AAACTCACGTGTTGTG, for which the “relative binding free energy” value amounted to 0.14 kcal/mol.

For the sequence TCGTACACGTGGGGTC, the “relative binding free energy” value is -0.06 kcal/mol.

For the sequence GCAGGCACGTGCTGTG, the “relative binding free energy” value is -0.09 kcal/mol.

Values taken from the BET-seq Pho4 binding data (Le et al. 2018).
